# Source: PubChem BioAssay AID1240 (Sanford-Burnham Center for Chemical Genomics, 2008)
# The campaign covered roughly 50,000 compounds. About 800 (1.6%) showed an effect of 50% or more. The list shows a part of the results.
# Target: Bcl-2-like protein 10 (Homo sapiens) (UniProt Q9HD36)
# Experiment: Phenotype converters, Bcl-B/TR3 peptide binding displacement, primary biochemical FP (AID 1240);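 note: 0% = Bcl-B with tracer peptide and DMSO and 100% = tracer peptide lacking Bcl-B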
# Conditions: GST-Bcl-B / FITC-TR3 peptide fluorescence polarization; stronger effect = higher value; compound at 3.75 mg/L
# UniProt Q9HD36, sequence (Q9HD36 whole entry, looked up): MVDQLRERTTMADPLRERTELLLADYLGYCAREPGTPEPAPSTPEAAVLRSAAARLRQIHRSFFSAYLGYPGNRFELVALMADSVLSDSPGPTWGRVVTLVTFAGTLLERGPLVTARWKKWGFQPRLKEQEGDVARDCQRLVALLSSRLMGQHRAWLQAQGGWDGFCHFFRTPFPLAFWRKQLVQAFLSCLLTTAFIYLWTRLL
row,SMILES,displacement [%]
1,COc1ccc(C(=O)Nc2c(C)ccc3nsnc23)cc1[N+](=O)[O-],10.5
2,NC(=O)Cn1c(-c2nonc2N)nc2ccccc21,48.5
3,O=C1S/C(=C\c2cccs2)C(=O)N1Cc1ccccc1,-11
4,Cc1ccc(S(=O)(=O)NC(=O)Nc2ccccc2C(F)(F)F)cc1,11.4
5,COC(=O)c1ccc(C(=O)OC)c(NC(=O)CCc2ccc(OC)cc2)c1,4.7
6,S=c1oc(-c2ccncc2)nn1CN1CCOCC1,-3.3
7,CCCSc1nsc(SCCC)c1C#N,2.5
8,O=C(Nc1ccc(NC(=O)c2cc3ccccc3o2)cc1)c1cccc(Cl)c1,-3.4
9,Fc1ccc(NC(=S)NCC2CCCO2)cc1 (configuration not stated),6.2
10,O=[N+]([O-])c1cccc(CN2CCN(Cc3c[nH]c4ccccc34)CC2)c1,-12.8
11,COc1ccc(C(=O)O/N=C(\N)c2ccccc2)c(OC)c1,-6.1
12,Cc1ccc(N=C2SC(C(=O)O)CC(=O)N2C)cc1Cl (configuration not stated),-7.9
13,O=C(Nc1ccccc1)C(=O)Nc1ccc(F)cc1,10.3
14,CC(=O)c1cccc(NC(=O)c2cc(I)ccc2Cl)c1,3
15,C#CCOc1nc(Nc2ccc([N+](=O)[O-])cc2)nc(OCC#C)n1,-4.5
16,CC1(C)CC(=O)c2sc(NC(=O)CSC3=NCCS3)nc2C1,1.8
17,CN(C)c1ccc(NC(=O)Cc2ccccc2[N+](=O)[O-])cc1,5.8
18,CCN(CC)c1ccc(NC(=O)COc2ccc(C)cc2)cc1,3.2
19,COc1cc(C2NC(=S)NC(C)=C2C(=O)Nc2ccc(Br)cc2)cc(OC)c1OC (configuration not stated),1.4
20,COCCNC(=O)C(=O)Nc1ccc(OC)c(Cl)c1,-12.4
21,N/C(=N\N=C\c1ccc(O)cc1)c1nonc1N,10.5
22,Cc1ccc(-c2ccc(OCC(=O)Nc3ccccc3C(F)(F)F)cc2)cc1,-7
23,Cn1c(O)c(/C=N/c2ncc(C(F)(F)F)cc2Cl)n(C)c1=S,0.4

row,SMILES,displacement [%]
1,CCC(C)c1ccc(NC(=O)c2cc(Br)ccc2OC)c(O)c1 (configuration not stated),5.9
2,Cc1nnc(SCc2ccc(C(=O)O)cc2)s1,-0.3
3,CCOC(=O)c1c(N)sc2c1CCN(C(=O)OCC)C2,0.7
4,Cc1ccc(C(=O)c2cccc(NC(=O)CC(C)C)c2)cc1C,12.1
5,COc1cccc(N2C(=O)/C(=C/c3cc(OC)c(OC)c(OC)c3)SC2=S)c1,41.6
6,COC(=O)NC(NC(=O)OC)c1ccc(Br)cc1,4.2
7,O=C(NCc1cccs1)c1cc2nc(-c3ccc([N+](=O)[O-])cc3)cc(C(F)(F)F)n2n1,3.7
8,O=C(CSc1nc2ccccc2s1)NCC(=O)c1ccccc1,-1.9
9,Cc1c(Cl)cccc1-c1ccc(C(=O)O)o1,-0.1
10,Cc1ccc(S(N)(=O)=O)cc1NC(=O)COc1ccccc1,1.8
11,Cc1cc2nc(-c3ccc(NC(=O)c4ccco4)cc3O)oc2cc1C,0.3
12,O=C(Cc1ccc(Br)cc1)NCC1CCCO1 (configuration not stated),10.2
13,COc1cc(C(=O)Nc2cccc(-c3cc4ccccc4oc3=O)c2)cc(OC)c1OC,3.9
14,COc1ccc(NC(=O)c2cccc(F)c2)cc1,-4.5
15,Cc1cc(C)c2nc3s/c(=C/c4ccc5c(c4)n(C)c(=O)n5C)c(=O)n3c2c1,-2.5
16,COc1ccc2nc(NC3=NC(c4ccccc4)CC(=O)N3)nc(C)c2c1 (configuration not stated),0.3
17,Cc1nnc(NC(=O)c2cc(C(F)(F)F)cc(C(F)(F)F)c2)s1,-8.9
18,CCCCOc1ccc(/C=C2\N=C(c3ccc(Cl)cc3)OC2=O)cc1,14.7
19,CC(=O)CC(=O)Nc1c(C)cc(C)cc1C,-3.5
20,CCOc1ccccc1NC(=O)c1c(NC(=O)c2ccccc2Br)sc2c1CCC(C)C2 (configuration not stated),-5.8
21,O=C(Nc1ccc(Cl)cc1)C(=O)NC1CCCC1,10.3
22,CCC1(c2ccccc2)C(=O)N(C(=O)c2ccccc2)C(=O)N(C(=O)c2cc(OC)c(OC)c(OC)c2)C1=O (configuration not stated),6.3
23,CN1CCN(C2=NC(=O)/C(=C/c3ccc(Cl)cc3)S2)CC1,-21.4

row,SMILES,displacement [%]
1,COC(=O)C1=C(N)OC2=C(C(=O)CCC2)C1c1ccc(OC)cc1 (configuration not stated),-0.3
2,COC(=O)c1c(NC(=O)C(C)C)sc2c1CCCC2,-2.6
3,C=C(C)COc1ccc2c(CC)cc(=O)oc2c1,-1.3
4,O=C(Nc1ccccc1Cl)c1ccc(S(=O)(=O)N2CCOCC2)cc1,0.9
5,Cc1ccc(-n2c(C)cc(/C=N/NC(N)=O)c2C)cc1C,0.9
6,O=C(CN(c1cccc([N+](=O)[O-])c1)S(=O)(=O)c1ccccc1)Nc1ccccc1Cl,11.1
7,COc1ccccc1CNS(=O)(=O)c1ccc(C)cc1,-11
8,CC1=C(C(=O)OC(C)C)C(c2ccc(O)c([N+](=O)[O-])c2)C2=C(CC(C)(C)CC2=O)N1 (configuration not stated),-6
9,CC1(C)CC(=O)C(C2(C3C(=O)CC(C)(C)CC3=O)C(=O)Nc3ccccc32)C(=O)C1,12.1
10,COc1cc2c(cc1OC)C(=C(Cl)Cl)NC(C)(C)C2,-6
11,O=C1N=c2ccc(Br)cc2=C1c1sc(NS(=O)(=O)Cc2ccccc2)nc1O,11.9
12,CCOC(=O)c1c(-c2ccc(C)cc2)csc1NC(=O)C1CCCCC1C(=O)O (configuration not stated),-5.3
13,O=C(CSCC(=O)Nc1ccc(F)c([N+](=O)[O-])c1)Nc1ccccc1,-12.3
14,CCCC(=O)Nc1cc(-c2nc3cc(Cl)ccc3o2)ccc1C,-2.5
15,O=C(Nc1ccc(Cl)c(Cl)c1)Nc1ncccc1Cl,-4
16,O=C(NNc1ccc([N+](=O)[O-])cc1)c1ccc(Cl)cc1Cl,-10.3
17,COc1ccc(C(=O)Nc2ccccc2CO)cc1OC,1
18,Cc1cccc(OCC(=O)NCc2ccco2)c1,-8
19,S=C(NCC12CCC3CC(CC(C3)C1)C2)Nc1ccccc1,-2.6
20,CC1=C(C(=O)OCCc2ccccc2)C(c2ccccc2)NC(=O)N1 (configuration not stated),3.9
21,COCCCNC(=O)c1cc(C(=O)OC)cc([N+](=O)[O-])c1,15.6
22,Cc1cc(Cl)ccc1NC(=O)c1ccc(N(Cc2ccccc2)S(C)(=O)=O)cc1,10.6
23,O=C(Cc1ccc(-c2ccccc2)cc1)Nc1cc(Cl)ccc1Cl,-5.1

row,SMILES,displacement [%]
1,COc1ccc(Cl)cc1C(=O)Nc1cccc(C)n1,3.5
2,CCOC(=O)c1c(C)oc2c(F)c(C(F)(F)F)c(F)c(F)c12,13.9
3,CCc1ccccc1N(CC(=O)Nc1ccccc1C(=O)OC)S(C)(=O)=O,-0.1
4,CC1CC(=O)NN=C1c1ccc(N)c(N)c1 (configuration not stated),3.9
5,CCC(CC)NCc1cc(Br)ccc1OC,11.9
6,CCOc1cccc(/C=N\N2CCN(c3ccccc3OC)CC2)c1O,-4.6
7,O=C(Nc1ccc(O)cc1)c1cccc(N2C(=O)c3cccc([N+](=O)[O-])c3C2=O)c1,11.4
8,CCOC(=O)CSc1nc2sc3c(c2c(=O)n1CC)CC(C)(C)OC3,2.9
9,O=c1[nH]cc(N=Cc2cc(Br)ccc2O)c(=O)[nH]1,42.9
10,Cc1cc(C)c(C(N)=O)c(Nc2ccc(C3CCCCC3)cc2)n1,-3.9
11,COC(=O)C(=O)c1c[nH]c2ccccc12,12
12,O=C1C(=O)N(Cc2ccccc2)C(c2ccc(Br)cc2)/C1=C(/O)c1ccccc1 (configuration not stated),4.7
13,O=c1oc(-c2ccco2)nc2ccccc12,15.9
14,CCC(=NCCCn1ccnc1)c1c(C(F)(F)F)[nH]n(-c2nc3ccccc3s2)c1=O,-6.7
15,CN(C)/C=C/C=C/C(=O)c1cccc(C(=O)/C=C/C=C/N(C)C)c1O,-19.7
16,COc1ccc(OCC(=O)Nc2ccc3c(c2)OCO3)cc1,2.4
17,CC1=C(C(=O)Nc2cccc(Cl)c2C)C(c2ccc(Cl)cc2)NC(=S)N1 (configuration not stated),5.6
18,CCCn1c(=O)c(C(=O)Nc2cccc(C)c2)c(O)c2ccccc21,2.6
19,Cc1ccc(C(=O)N2CCN(c3ccc([N+](=O)[O-])cc3Cl)CC2C)o1 (configuration not stated),16.3
20,CC12c3ccccc3C(C)(c3ccccc31)C1C(=O)N(c3ccc(C(=O)O)cc3)C(=O)C12 (configuration not stated),14.2
21,O=C(CSc1nc2ccc([N+](=O)[O-])cc2[nH]1)c1ccc2ccccc2c1,13
22,CCc1ccc(-c2cc(C(=O)N3CCN(C)CC3)c3ccccc3n2)cc1,-7.2
23,Cc1cc(S(N)(=O)=O)ccc1NC(=O)c1sc2ccccc2c1Cl,-3

row,SMILES,displacement [%]
1,Cc1ccc(S(=O)(=O)N(C)C)c(C)c1N1CCc2cnn(S(=O)(=O)c3ccc(Cl)cc3)c21,31.1
2,COC(=O)c1ccc(NC(=O)C2c3ccccc3Oc3ccccc32)cc1,-4
3,O=C(Nc1ccccc1C(=O)Nc1ccc(Cl)cc1)c1ccco1,-2.4
4,O=c1[nH]c(/C=C/c2ccc3c(c2)OCO3)nc2ccccc12,31.8
5,Cc1ccc(Cl)cc1NC(=O)CN(c1cccc([N+](=O)[O-])c1)S(=O)(=O)c1ccccc1,15.2
6,COc1ccccc1N1CCN(/N=C/c2cccc(C)c2)CC1,8.5
7,Cc1ccc(S(=O)(=O)N2CCCC(C)C2)cc1 (configuration not stated),-11
8,COC(=O)CCC(=O)Nc1ccc([N+](=O)[O-])cc1C,14.7
9,COc1ccccc1CN1CCN(C(=O)c2cccs2)CC1,1.2
10,CCOc1ccc(NC(=O)/C=C/c2ccc(C)o2)cc1,13.3
11,O=C(COC(=O)c1ccc(Cl)c([N+](=O)[O-])c1)c1ccc(Cl)cc1,3.3
12,COc1ccc(N2C(=O)CC(NC3CCCC3)C2=O)cc1 (configuration not stated),-10.9
13,O=c1c2ccccc2c2c1nc1c(=O)c3ccccc3c(=O)n12,2.4
14,CCCC(=O)Nc1ccc(NC(=O)c2ccc(C)c(C)c2)cc1,-4
15,CCN(CC)C(=O)c1ccccc1NC(=O)c1ccccc1Cl,4.5
16,COc1ccc(CCNC(=O)CCN2C(=O)c3ccccc3C2=O)cc1OC,-7.3
17,Cc1ccc(OCC(=O)N/N=C\c2cc(Cl)cc(Br)c2O)cc1,7.2
18,CC(=O)Nc1cccc(-c2nc3ccccc3s2)c1,10.3
19,Cc1ccc(-n2[nH]c(C)c(C=Nc3ccc(S(=O)(=O)Nc4nccs4)cc3)c2=O)cc1C,-0.2
20,Cc1ccc2[nH]c(O)c(N=Nc3ccc([N+](=O)[O-])cc3)c2c1,-0.9
